Reference: PubChem BioAssay AID360 (National Center for Advancing Translational Sciences (NCATS), 2006)
The campaign covered roughly 48,000 compounds. About 550 (1.1%) were called active. About 4% were inconclusive and are not listed. Cut-off read from the data, not from the text of the source: active = potency below about 15 µM; inconclusive = mostly about 16 µM to 33 µM; inactive = weaker than that. The list shows a part of the results.

Biological target: Lysosomal acid glucosylceramidase (Homo sapiens) (UniProt P04062)
Chain of UniProt P04062 (P04062 whole entry, looked up): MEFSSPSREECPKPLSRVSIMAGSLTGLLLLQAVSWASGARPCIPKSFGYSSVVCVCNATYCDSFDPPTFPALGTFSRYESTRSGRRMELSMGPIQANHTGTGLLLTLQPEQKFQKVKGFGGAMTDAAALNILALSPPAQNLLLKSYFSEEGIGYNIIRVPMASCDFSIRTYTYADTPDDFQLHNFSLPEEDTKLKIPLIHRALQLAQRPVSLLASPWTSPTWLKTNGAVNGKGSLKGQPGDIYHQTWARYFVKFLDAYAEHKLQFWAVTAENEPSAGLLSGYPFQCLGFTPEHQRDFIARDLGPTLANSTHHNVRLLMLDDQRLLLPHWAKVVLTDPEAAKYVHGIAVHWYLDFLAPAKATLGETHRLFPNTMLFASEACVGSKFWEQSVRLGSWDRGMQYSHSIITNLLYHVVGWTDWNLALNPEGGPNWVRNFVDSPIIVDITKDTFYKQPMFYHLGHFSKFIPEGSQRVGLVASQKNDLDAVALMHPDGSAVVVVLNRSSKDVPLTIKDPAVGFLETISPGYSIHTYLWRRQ
Experiment: Glucocerebrosidase;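 note: the screen sought inhibitors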
Settings: purified enzyme, resorufin glucoside fluorescence (screen aimed at inhibitors), 20 min
Summary of the method: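 Normal human glucocerebrosidase (0.2 nM final) was assayed with resorufin β-D-glucopyranoside (30 uM final) in 50mM citric acid/KH2PO4, 10mM sodium taurocholate, 0.01% tween-20, pH 5.9. Compounds were titrated; fluorescence (Ex 548, Em 600) read after 20 min at RT.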
Potency is the fitted concentration of half-maximal effect.

Potency, inactive:
CC1(CC(=O)O)SC(=O)NC1=O (stereo unspecified) > 76.9 µM, CC1Cc2ccccc2N1S(=O)(=O)c1cccc(C(=O)c2nccn2C)c1 (stereo unspecified) > 76.9 µM, CCc1nc(-c2cc3ccc(C)cc3[nH]c2=O)no1 > 76.9 µM, Cc1sc2nc3ccc(N4CCCCC4)nn3c(=O)c2c1C > 76.9 µM, O=C(COC(=O)c1ccc(S(=O)(=O)N2CCOCC2)cc1)NC1CCCC1 > 76.9 µM, Cc1nc2ccc(S(=O)(=O)NCC(=O)NCCN3CCCCC3C)cc2s1 (stereo unspecified) > 76.9 µM, O=C(Nc1cc(=O)c2ccccc2o1)N1CCCCC1 > 76.9 µM, C=C(C)Cn1c(NCCOC)nc2c1c(=O)[nH]c(=O)n2C > 76.9 µM, Cc1c(C(=O)NCCc2ccccc2)oc2ccc(S(=O)(=O)N3CCC4(CC3)OCCO4)cc12 > 76.9 µM, O=C1N=C(N2CCOCC2)CS1 > 76.9 µM, Cc1cc(CC(C)C)n(-c2nc3ccccc3c(=O)n2OCC(N)=O)n1 > 76.9 µM, CN(C)CCNC(=O)Cn1nc(C(F)F)cc1C1CC1 > 76.9 µM, CCOCCCNC(=O)C1CCCCN1S(=O)(=O)c1ccc(F)cc1 (stereo unspecified) > 76.9 µM, O=C(CSc1nnc2sc3ccccc3n12)c1ccco1 > 76.9 µM, Cc1ccc2oc(-c3ccc(NC(=O)c4ccc5c(c4)OCO5)cc3)nc2c1 > 76.9 µM, O=C(c1ccc(C(F)(F)F)cc1)N1CCCCC1 > 76.9 µM, COc1cc(C2N(c3ccc(Cl)c(Cl)c3)C(=O)C3CCCN32)cc(OC)c1OC (stereo unspecified) > 76.9 µM, CSc1nnc2c3cc(F)ccc3n(Cc3ccccc3)c2n1 > 76.9 µM, Cc1cnc(C(=O)N2CCN(S(=O)(=O)c3ccc4ccccc4c3)CC2)cn1 > 76.9 µM, CCOC(=O)c1cc2c(ccn2C)n1Cc1ccccc1C > 76.9 µM, COCCn1c(SCC(=O)c2ccc3c(c2)OCCO3)nnc1-c1ccoc1C > 76.9 µM, O=C(CC1NC2CCCCC2NC1=O)Nc1ccc2c(c1)OCO2 (stereo unspecified) > 76.9 µM, COC(=O)CCn1nnc(-c2ccc(C)cc2)n1 > 76.9 µM, COC(=O)CNc1nc(C2CC2)nc2c1nnn2Cc1ccccc1Cl > 76.9 µM, COc1ccc2c(c1)Cc1sc(NC(=O)c3cccs3)nc1-2 > 76.9 µM, Cc1cccc(-c2nc(CSCC(=O)N3CCN(Cc4ccc5c(c4)OCO5)CC3)c(C)o2)c1 > 76.9 µM, CCCCCCn1c(C(C)NC(=O)c2ccco2)nc2ccccc21 (stereo unspecified) > 76.9 µM, Cn1nnnc1SCC(=O)NCCCc1ccccc1 > 76.9 µM, Cc1c(N(C)C(=O)c2ccccc2F)c(=O)n(-c2ccccc2)n1C > 76.9 µM, COc1ccccc1CNC(=O)CN(C)CC(=O)Nc1cccc(F)c1 > 76.9 µM, O=C(CCCN1C(=O)CSc2ncccc21)N1CCN(c2cccc(C(F)(F)F)c2)CC1 > 76.9 µM, O=C(O)CSCC(=O)Nc1cccc2ccccc12 > 76.9 µM, O=C(C1CCN(S(=O)(=O)N2CCOCC2)CC1)N1CCOCC1 > 76.9 µM, CCOc1ccc(C(=O)NCC(=O)OC(C)C(=O)NCc2ccco2)cc1OCC (stereo unspecified) > 76.9 µM, c1ccc(Oc2cccc(NC3=NCCC3)c2)cc1, CCc1nc(SCc2cc(Cl)ccc2OC)n[nH]1 > 76.9 µM, COc1ccc(C2C(C(=O)Nc3cc(C)on3)c3ccccc3C(=O)N2C)cc1 (stereo unspecified) > 76.9 µM, Cc1ccc(N2CC(C(=O)NCCCn3ccnc3)CC2=O)cc1 (stereo unspecified) > 76.9 µM, CCOC(=O)C1CSC(CC(=O)Nc2ccc(Cl)cc2)C(=O)N1 (stereo unspecified) > 76.9 µM, O=C(Nc1ccc(Oc2ncccn2)cc1)c1ccco1 > 76.9 µM, COCCn1c(SCC(=O)N2CCCc3ccccc32)nc2cccnc21 > 76.9 µM, Cc1cc(C(=O)N2CCc3ccccc32)c2ccccc2n1 > 76.9 µM, CN(C)c1oc(-c2ccco2)nc1C#N > 76.9 µM, CCc1nc(N)c(C#N)c(-c2cccnc2)c1C > 76.9 µM, CC(=O)c1ccc(NC2CC(O)C(O)CO2)cc1 (stereo unspecified) > 76.9 µM, CCCCn1c(SCC(=O)Nc2nc(C)cs2)nnc1-c1cccnc1 > 76.9 µM, O=C(O)C(Cc1ccccc1)n1cnnn1 (stereo unspecified) > 76.9 µM, Cc1cc(C(F)(F)F)n2nc(C(=O)O)c(Cl)c2n1 > 76.9 µM, CCc1cc2c(cc(C(=O)O)n2C)s1 > 76.9 µM, CCCCCn1c(CN2CCN(c3cccc(Cl)c3)CC2)nc2c1c(=O)[nH]c(=O)n2C > 76.9 µM, CCN(CCNC(=O)CN1CCN(Cc2ccc(Cl)cc2)C1=O)c1ccccc1 > 76.9 µM, CC(=O)Nc1ccc(NC(=O)c2c(C)nc3ccccn23)cc1 > 76.9 µM, O=C(O)c1ccc(CSc2nc3ccccc3o2)cc1 > 76.9 µM, Cc1ccccc1NC(=O)C1CC(=O)N(c2ccccc2F)C1 (stereo unspecified) > 76.9 µM, O=C(CSc1nnc(-c2cnccn2)n1Cc1ccco1)c1ccc(Cl)cc1 > 76.9 µM, CC(C)(C)C(=O)COC(=O)c1cccc(NC(=O)c2ccco2)c1 > 76.9 µM, O=C(O)COc1cccc(NC(=O)C2CCCO2)c1 (stereo unspecified) > 76.9 µM, O=C(CC1N=C2c3ccccc3N=C(SCc3ccccc3Cl)N2C1=O)NCc1ccco1 (stereo unspecified) > 76.9 µM, O=S(=O)(Cc1ccc(Cl)cc1)N1CCCC1 > 76.9 µM, CCCCC(=O)Nc1nnn(CCC)n1 > 76.9 µM, Nn1c(SCC(=O)Nc2ccccc2F)nc2ccccc2c1=O > 76.9 µM
